# The other results are listed elsewhere or left out.
# What was measured:
# Assay in all cases: glycan array binding signal (z-score within array); higher = stronger binding
# Conditions in all cases: glycan notation: IUPAC condensed, linker removed
# Gal3S6S(b1-4)GlcNAc6S = target: Gal3S6S(b1-4)GlcNAc6S
# How it was run: (§1)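 Glycan array binding is given as a within-array Z-score, which can be read as non-binding when negative. The arrays, 3228 of them, came from the Consortium for Functional Glycomics database and were retained only where the protein sequence was available. Z-scores were averaged across arrays of the same protein sequence at different concentrations or buffers and across linkers.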
# Gal4S(b1-4)GlcNAc = target: Gal4S(b1-4)GlcNAc
# How it was run: as §1
# Gal4S6S(b1-4)GlcNAc = target: Gal4S6S(b1-4)GlcNAc
# How it was run: as §1
# Gal6S(b1-4)Glc = target: Gal6S(b1-4)Glc
# How it was run: as §1
# Gal6S(b1-4)Glc6S = target: Gal6S(b1-4)Glc6S
# How it was run: as §1
# Gal6S(b1-4)GlcNAc = target: Gal6S(b1-4)GlcNAc
# How it was run: as §1
# Gal6S(b1-4)GlcNAc6S = target: Gal6S(b1-4)GlcNAc6S
# How it was run: as §1
# GalNAc(a1-3)Gal = target: GalNAc(a1-3)Gal
# How it was run: as §1
# GalNAc(a1-3)GalNAc = target: GalNAc(a1-3)GalNAc
# How it was run: as §1
# GalNAc(b1-3)Gal = target: GalNAc(b1-3)Gal
# How it was run: as §1
# [1] = target: GalNAc(b1-3)Gal(a1-4)Gal(b1-4)GlcNAc
# How it was run: as §1
# [2] = target: GalNAc(b1-3)Gal(a1-4)Gal(b1-4)GlcNAc(b1-3)Gal(b1-4)Glc
# How it was run: as §1
# GalNAc(b1-3)GalNAc = target: GalNAc(b1-3)GalNAc
# How it was run: as §1
# GalNAc(b1-4)GlcNAc = target: GalNAc(b1-4)GlcNAc
# How it was run: as §1
# [3] = target: GalNAc(b1-4)GlcNAc(b1-2)Man(a1-3)[GalNAc(b1-4)GlcNAc(b1-2)Man(a1-6)]Man(b1-4)GlcNAc(b1-4)GlcNAc
# How it was run: as §1
# Glc(a1-4)Glc = target: Glc(a1-4)Glc
# How it was run: as §1
# Glc(a1-6)Glc(a1-6)Glc = target: Glc(a1-6)Glc(a1-6)Glc
# How it was run: as §1
# Glc(b1-4)Glc = target: Glc(b1-4)Glc
# How it was run: as §1
# Glc(b1-6)Glc = target: Glc(b1-6)Glc
# How it was run: as §1
# GlcA(b1-3)Gal = target: GlcA(b1-3)Gal
# How it was run: as §1
# GlcA(b1-3)GlcNAc = target: GlcA(b1-3)GlcNAc
# How it was run: as §1
# GlcA(b1-6)Gal = target: GlcA(b1-6)Gal
# How it was run: as §1
# [4] = target: GlcNAc(a1-3)Gal(b1-4)GlcNAc
# How it was run: as §1
# [5] = target: GlcNAc(a1-4)Gal(b1-3)GlcNAc
# How it was run: as §1
# [6] = target: GlcNAc(a1-4)Gal(b1-4)GalNAc
# How it was run: as §1
# [7] = target: GlcNAc(a1-4)Gal(b1-4)GlcNAc
# How it was run: as §1
# [8] = target: GlcNAc(a1-4)Gal(b1-4)GlcNAc(b1-3)Gal(b1-4)Glc
# How it was run: as §1
# [9] = target: GlcNAc(a1-4)Gal(b1-4)GlcNAc(b1-3)Gal(b1-4)GlcNAc
# How it was run: as §1
# [10] = target: GlcNAc(a1-4)Gal(b1-4)GlcNAc(b1-3)Gal(b1-4)GlcNAc(b1-3)Gal(b1-4)GlcNAc
# How it was run: as §1
# [11] = target: GlcNAc(a1-4)Gal(b1-4)GlcNAc(b1-3)Gal(b1-4)[Fuc(a1-3)]GlcNAc(b1-3)Gal(b1-4)[Fuc(a1-3)]GlcNAc
# How it was run: as §1
# [12] = target: GlcNAc(a1-6)Gal(b1-4)GlcNAc
# How it was run: as §1
# [13] = target: GlcNAc(b1-2)Gal(b1-3)GalNAc
# How it was run: as §1
# [14] = target: GlcNAc(b1-2)Man(a1-3)[GlcNAc(b1-2)Man(a1-6)]Man(b1-4)GlcNAc(b1-4)GlcNAc
# How it was run: as §1
# [15] = target: GlcNAc(b1-2)Man(a1-3)[GlcNAc(b1-2)Man(a1-6)]Man(b1-4)GlcNAc(b1-4)[Fuc(a1-6)]GlcNAc
# How it was run: as §1
# GlcNAc(b1-3)Gal = target: GlcNAc(b1-3)Gal
# How it was run: as §1
# [16] = target: GlcNAc(b1-3)Gal(b1-3)GalNAc
# How it was run: as §1
# GlcNAc(b1-3)Gal(b1-4)Glc = target: GlcNAc(b1-3)Gal(b1-4)Glc
# How it was run: as §1
# [17] = target: GlcNAc(b1-3)Gal(b1-4)GlcNAc
# How it was run: as §1
# [18] = target: GlcNAc(b1-3)Gal(b1-4)GlcNAc(b1-3)Gal(b1-4)GlcNAc
# How it was run: as §1
# GlcNAc(b1-3)GalNAc = target: GlcNAc(b1-3)GalNAc
# How it was run: as §1
# GlcNAc(b1-3)Man = target: GlcNAc(b1-3)Man
# How it was run: as §1
# [19] = target: GlcNAc(b1-3)[GlcNAc(b1-4)][GlcNAc(b1-6)]GlcNAc
# How it was run: as §1
# [20] = target: GlcNAc(b1-3)[GlcNAc(b1-6)]Gal(b1-4)GlcNAc
# How it was run: as §1
# [21] = target: GlcNAc(b1-3)[GlcNAc(b1-6)]GalNAc
# How it was run: as §1
# [22] = target: GlcNAc(b1-4)Gal(b1-4)GlcNAc
# How it was run: as §1
binder,measurement,setting,value
"StdA (Salmonella typhimurium), Q8Z3Z0 (protein) MAAAGMMYGASVFAADTTPTAGPFGSGKILFTGTITNSPCDIAPGDDAITVPFGQISYRKLNTANATTDSKPFTIHLQNCAFDPNETTIAGSAGKMSKVTVSFSGTADTSGKAYVSTGSAQHVGVQLLKGDNTSLITPNTPMPDGDAQQLQAGNNELNFFARLIALTDAATPGDVNASVTYTLKYL",glycan array binding signal (z-score),Gal3S6S(b1-4)GlcNAc6S,-0.494
same,glycan array binding signal (z-score),Gal4S(b1-4)GlcNAc,-0.573
same,glycan array binding signal (z-score),Gal4S6S(b1-4)GlcNAc,0.393
same,glycan array binding signal (z-score),Gal6S(b1-4)Glc,-0.489
same,glycan array binding signal (z-score),Gal6S(b1-4)Glc6S,0.765
same,glycan array binding signal (z-score),Gal6S(b1-4)GlcNAc,0.71
same,glycan array binding signal (z-score),Gal6S(b1-4)GlcNAc6S,-0.164
same,glycan array binding signal (z-score),GalNAc(a1-3)Gal,-0.279
same,glycan array binding signal (z-score),GalNAc(a1-3)GalNAc,0.047
same,glycan array binding signal (z-score),GalNAc(b1-3)Gal,-0.409
same,glycan array binding signal (z-score),[1],-0.636
same,glycan array binding signal (z-score),[2],0.837
same,glycan array binding signal (z-score),GalNAc(b1-3)GalNAc,-0.077
same,glycan array binding signal (z-score),GalNAc(b1-4)GlcNAc,-0.136
same,glycan array binding signal (z-score),[3],3.5
same,glycan array binding signal (z-score),Glc(a1-4)Glc,2.13
same,glycan array binding signal (z-score),Glc(a1-6)Glc(a1-6)Glc,-1.04
same,glycan array binding signal (z-score),Glc(b1-4)Glc,-0.507
same,glycan array binding signal (z-score),Glc(b1-6)Glc,-0.054
same,glycan array binding signal (z-score),GlcA(b1-3)Gal,-0.14
same,glycan array binding signal (z-score),GlcA(b1-3)GlcNAc,-0.312
same,glycan array binding signal (z-score),GlcA(b1-6)Gal,-0.599
same,glycan array binding signal (z-score),[4],-0.926
same,glycan array binding signal (z-score),[5],1.79
same,glycan array binding signal (z-score),[6],0.974
same,glycan array binding signal (z-score),[7],-0.553
same,glycan array binding signal (z-score),[8],0.073
same,glycan array binding signal (z-score),[9],-0.599
same,glycan array binding signal (z-score),[10],0.545
same,glycan array binding signal (z-score),[11],0.242
same,glycan array binding signal (z-score),[12],0.055
same,glycan array binding signal (z-score),[13],-0.638
same,glycan array binding signal (z-score),[14],0.112
same,glycan array binding signal (z-score),[15],0.848
same,glycan array binding signal (z-score),GlcNAc(b1-3)Gal,-1.51
same,glycan array binding signal (z-score),[16],2.07
same,glycan array binding signal (z-score),GlcNAc(b1-3)Gal(b1-4)Glc,0.153
same,glycan array binding signal (z-score),[17],-0.077
same,glycan array binding signal (z-score),[18],-0.414
same,glycan array binding signal (z-score),GlcNAc(b1-3)GalNAc,-0.854
same,glycan array binding signal (z-score),GlcNAc(b1-3)Man,0.206
same,glycan array binding signal (z-score),[19],-0.591
same,glycan array binding signal (z-score),[20],-0.265
same,glycan array binding signal (z-score),[21],0.036
same,glycan array binding signal (z-score),[22],-0.524

# — the supplement of paper PMC8728848
